These results are taken from PMC4336329 (PLoS ONE, 2015).

Hit rate of the full screen: of about 310,000 compounds, about 14,000 (4.5%) showed an effect of 50% or more. Effects have a minus sign here. The list shows a part of the results.
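Note: peak tail current of the secondary pulse compared with the same well before compound.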

This assay deals with human ether-à-go-go-related gene (hERG) potassium channel (human, UniProt Q12809). Nature of the assay: primary screen, population patch clamp on CHO cells stably expressing hERG.
human ether-à-go-go-related gene (hERG) potassium channel, sequence (Q12809 whole entry, looked up): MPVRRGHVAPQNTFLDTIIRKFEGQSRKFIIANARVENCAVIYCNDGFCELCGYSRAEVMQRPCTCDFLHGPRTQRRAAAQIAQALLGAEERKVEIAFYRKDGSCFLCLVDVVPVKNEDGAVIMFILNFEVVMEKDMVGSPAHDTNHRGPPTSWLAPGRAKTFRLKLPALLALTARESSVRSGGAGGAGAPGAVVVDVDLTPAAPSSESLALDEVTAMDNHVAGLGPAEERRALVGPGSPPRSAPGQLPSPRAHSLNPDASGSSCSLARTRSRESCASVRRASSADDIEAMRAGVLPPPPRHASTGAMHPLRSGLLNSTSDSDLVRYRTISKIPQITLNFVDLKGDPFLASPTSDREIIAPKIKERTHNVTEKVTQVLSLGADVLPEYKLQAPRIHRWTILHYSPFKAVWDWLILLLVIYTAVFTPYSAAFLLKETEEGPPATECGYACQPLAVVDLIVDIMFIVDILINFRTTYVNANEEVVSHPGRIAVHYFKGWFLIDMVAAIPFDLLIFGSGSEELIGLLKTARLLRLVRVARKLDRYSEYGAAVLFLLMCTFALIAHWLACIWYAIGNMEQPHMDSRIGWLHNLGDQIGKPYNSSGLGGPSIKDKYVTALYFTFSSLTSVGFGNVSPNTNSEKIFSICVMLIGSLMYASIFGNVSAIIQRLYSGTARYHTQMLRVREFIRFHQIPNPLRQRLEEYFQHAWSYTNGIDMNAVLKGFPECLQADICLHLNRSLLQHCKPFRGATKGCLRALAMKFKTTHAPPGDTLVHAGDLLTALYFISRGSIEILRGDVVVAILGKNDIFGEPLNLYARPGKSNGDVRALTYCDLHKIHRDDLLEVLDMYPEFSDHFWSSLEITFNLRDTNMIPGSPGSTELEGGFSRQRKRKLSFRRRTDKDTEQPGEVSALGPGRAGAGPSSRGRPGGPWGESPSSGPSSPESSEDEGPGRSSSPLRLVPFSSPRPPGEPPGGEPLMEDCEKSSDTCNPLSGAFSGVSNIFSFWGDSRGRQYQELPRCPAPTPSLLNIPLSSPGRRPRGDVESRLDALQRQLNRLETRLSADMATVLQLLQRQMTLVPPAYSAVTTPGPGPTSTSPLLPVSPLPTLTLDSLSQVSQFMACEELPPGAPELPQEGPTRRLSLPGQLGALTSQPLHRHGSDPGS
With `COc1ccc(CCNC(=O)C2CCN(C(=O)N(C)C)CC2)cc1OC`, the “hERG current change (%, negative = inhibition) at 10uM” value was 10.5%.

As for `CN(C)CCNC(=O)Nc1ccc([N+](=O)[O-])cc1`, the “hERG current change (%, negative = inhibition) at 10uM” value is on record as -12%.

`CC(=O)N(c1nnc(-c2cccc(C)c2)s1)C1CCCC1`: the “hERG current change (%, negative = inhibition) at 10uM” value came out at 8.79%.

On to `COc1ccc(N2CCN(CNC(=O)c3ccccc3)CC2)cc1`, for which the “hERG current change (%, negative = inhibition) at 10uM” value amounted to 8.73%.

Regarding `CCCC(=O)Nc1ccccc1-c1nnn(CC(=O)Nc2ccc(OCC)cc2)n1`, the “hERG current change (%, negative = inhibition) at 10uM” value is on record as 2.96%.

With `N#Cc1cc2c(nc1SC1CC(=O)N(c3ccccc3)C1=O)CCC2` (stereo not shown), the “hERG current change (%, negative = inhibition) at 10uM” value is recorded as -14.4%.

For `CCOc1ccccc1NC(=S)Nc1ccccc1F`, the “hERG current change (%, negative = inhibition) at 10uM” value is given as 0.77%.

In the case of `O=C(N/N=C/c1ccc2c(c1)OCO2)c1cc(-c2ccncc2)nc2ccccc12`, the “hERG current change (%, negative = inhibition) at 10uM” value was -3.29%.

On to `CCN(CC)S(=O)(=O)c1ccc(C)c(NC(=O)CSc2ncc(C(F)(F)F)cc2Cl)c1`, for which the “hERG current change (%, negative = inhibition) at 10uM” value is -1.07%.

As to `COc1cc(NC(=O)NCC2CCN(Cc3ccccc3Cl)CC2)cc(OC)c1OC`, the “hERG current change (%, negative = inhibition) at 10uM” value was 3.03%.

Take `Cc1cc(C)cc(NC(=O)c2ccc(CNc3c(N4CCCC4)c(=O)c3=O)cc2)c1`: the “hERG current change (%, negative = inhibition) at 10uM” value worked out at 24.4%.

Turning to `CCOC(=O)C/C(C)=N\Nc1nc(-c2ccccc2)cs1`, the “hERG current change (%, negative = inhibition) at 10uM” value was -14.8%.

For `COC(=O)C1=C(c2ccccc2)C[C@@H]2CC[C@H]1N2C(=O)NC1CCCCC1`, the “hERG current change (%, negative = inhibition) at 10uM” value is given as -4.97%.

With `Cc1cc(C)n(-c2ccc(C)c(Cl)c2)n1`, the “hERG current change (%, negative = inhibition) at 10uM” value is listed as 0.586%.

Consider `C=C(C)c1cccc(C(C)(C)NC(=O)Nc2cccnc2)c1`, for which the “hERG current change (%, negative = inhibition) at 10uM” value is 16.8%.

For the molecule `CC(=O)NCCn1c(SCC(=O)NCC2CCCO2)nc2ccccc2c1=O` (stereo not shown), the “hERG current change (%, negative = inhibition) at 10uM” value is recorded as -11.1%.

Consider `COc1cccc(NC(=O)COc2ccc(C(=O)N3CCN(C)CC3)cc2)c1`, for which the “hERG current change (%, negative = inhibition) at 10uM” value is given as 15.8%.

Consider `c1ccc(CCNc2nc(-c3cccnc3)cs2)cc1`, for which the “hERG current change (%, negative = inhibition) at 10uM” value is -42.7%.

For `COCCc1nn2c(=O)cc(COC(=O)c3cc(OC)c(OC)c(OC)c3)nc2s1`, the “hERG current change (%, negative = inhibition) at 10uM” value was -22.6%.

`CC(C)NC(=O)c1ccc(Cl)cc1Cl`: the “hERG current change (%, negative = inhibition) at 10uM” value is recorded as 13.8%.

As for `CN(C)/C=C1\C(=O)N(C)N=C1C(F)(F)F`, the “hERG current change (%, negative = inhibition) at 10uM” value is recorded as -2.18%.

On to `O=C(CCc1nc2ccccc2c(=O)[nH]1)NCc1ccco1`, for which the “hERG current change (%, negative = inhibition) at 10uM” value is on record as -24.1%.

Regarding `O=C(CN1CCc2ccccc21)NCc1ccc2c(c1)OCO2`, the “hERG current change (%, negative = inhibition) at 10uM” value turned out to be 3.88%.

On to `Cc1ccc(C)c(OCC(=O)Nc2ccc(S(=O)(=O)Nc3onc(C)c3C)cc2)c1`, for which the “hERG current change (%, negative = inhibition) at 10uM” value stood at 13.2%.

Turning to `COCCn1c(SCC(=O)N2CC(C)OC(C)C2)nc2c([nH]c3ccccc32)c1=O` (stereo not shown), the “hERG current change (%, negative = inhibition) at 10uM” value is -7.07%.

Turning to `CC(NS(=O)(=O)c1ccc(Cl)cc1)C(=O)OCC(=O)c1ccc[nH]1` (stereo not shown), the “hERG current change (%, negative = inhibition) at 10uM” value is -13.9%.

Consider `Cc1nn(C)c(C)c1/C=N/NC(=O)c1csc2ccccc12`, for which the “hERG current change (%, negative = inhibition) at 10uM” value is listed as -2.45%.

Regarding `O=[N+]([O-])c1ccc2n[nH]nc2c1`, the “hERG current change (%, negative = inhibition) at 10uM” value came out at 11.4%.

In the case of `O=C(NNC(=O)C1CC(c2cccs2)=NO1)NC1CCCCC1` (stereo not shown), the “hERG current change (%, negative = inhibition) at 10uM” value is on record as 21.5%.

For the molecule `O=C(CN1C(=O)c2ccccc2S1(=O)=O)NCc1ccccn1`, the “hERG current change (%, negative = inhibition) at 10uM” value came to 2.89%.

On to `C=CCNC(=O)Nc1ccc2nc(C)sc2c1`, for which the “hERG current change (%, negative = inhibition) at 10uM” value is 28.2%.

On to `COc1ccc(-c2csc(N(CCc3ccccc3)C(=O)COc3ccccc3)n2)cc1`, for which the “hERG current change (%, negative = inhibition) at 10uM” value was 17.9%.

For the molecule `COc1ccc(/C=C/C(=O)NC(=S)Nc2ccc(S(=O)(=O)Nc3nccnc3OC)cc2)cc1`, the “hERG current change (%, negative = inhibition) at 10uM” value is given as -7.32%.

For the molecule `O=C(Nc1ccc(F)cc1)C1COc2ccccc2O1` (stereo not shown), the “hERG current change (%, negative = inhibition) at 10uM” value worked out at 9.07%.

Take `COC(C(=O)NNS(=O)(=O)c1ccc([N+](=O)[O-])cc1)c1ccccc1` (stereo not shown): the “hERG current change (%, negative = inhibition) at 10uM” value was 5.31%.

For the molecule `O=C(CCn1c(=O)[nH]c2ccccc2c1=O)N1CC=C(c2ccccc2)CC1`, the “hERG current change (%, negative = inhibition) at 10uM” value is recorded as 2.8%.

For `Cc1cccc(NC(=O)c2ccc3c(c2)C(=O)N(Cc2cccnc2)C3=O)c1C`, the “hERG current change (%, negative = inhibition) at 10uM” value is recorded as 2.77%.

With `Cn1nnnc1SCC(=O)N1CCCCC1`, the “hERG current change (%, negative = inhibition) at 10uM” value is -3.29%.

Consider `CCCCCc1cc(O)c2c(C)cc(=O)oc2c1`, for which the “hERG current change (%, negative = inhibition) at 10uM” value was determined as 9.67%.

Take `COc1ccc(C(=O)CSc2ncn[nH]2)cc1OC`: the “hERG current change (%, negative = inhibition) at 10uM” value is recorded as -1.18%.

As to `O=C(c1cc([N+](=O)[O-])ccc1N1CCOCC1)N1CCCCC1`, the “hERG current change (%, negative = inhibition) at 10uM” value was -0.41%.

Turning to `Cc1nc(Cl)cc(N/N=C/c2ccccc2)n1`, the “hERG current change (%, negative = inhibition) at 10uM” value came out at 14.3%.

Consider `O=C(NCc1ccccn1)c1ccc(Cl)c(S(=O)(=O)Nc2ccccc2C(=O)NCc2ccccn2)c1`, for which the “hERG current change (%, negative = inhibition) at 10uM” value worked out at 5.07%.

Consider `CSc1nnc(-c2ccccc2Cl)o1`, for which the “hERG current change (%, negative = inhibition) at 10uM” value was 10.6%.

Consider `Cc1c(C(=O)N(C)Cc2cccc(F)c2)oc2c(Cl)cccc12`, for which the “hERG current change (%, negative = inhibition) at 10uM” value came out at 9.18%.

Turning to `Cl.Oc1cccc(Nc2nc(NCC3CCCO3)c3ccccc3n2)c1` (stereo not shown), the “hERG current change (%, negative = inhibition) at 10uM” value is given as -61.4%.
